Test results published in ChEMBL document CHEMBL1156829.
Whole data set: some 5,400 compounds, median “IFI” near 2, cut for the highest 2% near 22. Some of the results follow.

Assay: NOVARTIS: Inhibition Frequency Index (IFI) - the number of HTS assays where a compound showed > 50% inhibition/induction, expressed as a percentage of the number of assays in which the compound was tested.
Format: functional

Compound	IFI [%]
c1ccc(CCc2nc3cccnc3n2C2CCN(C3CCN(Cc4ccccc4)CC3)CC2)cc1	1.92
CC1=C(C(=O)OC(C)C)C(c2ccc(F)cc2)C2=C(CC(c3ccc(Cl)cc3)CC2=O)N1 (stereo not drawn)	7.06
CN1CCCC1CCNCc1cc(-c2ccnc3cc(Cl)ccc23)ccc1O (stereo not drawn)	5
Clc1cccc(Nc2nc(NCc3ccco3)c3ccccc3n2)c1	9.68
Cc1ccc(N(C(=O)c2snc(C(=O)NC3CCCCC3)c2N)C(C(=O)NCCc2ccccc2)c2ccc(O)cc2)c(C)c1 (stereo not drawn)	5.21
O=C(Oc1ccc(-c2ccc(OC(=O)c3ccco3)cc2)cc1)c1ccco1	0
O=C(Cn1c2ccccc2c(=O)c2cc(Cl)ccc21)Nc1cccc(C(F)(F)F)c1	3.45
COc1ccc2ccc(OC)c(C3C(C#N)=C(N)OC4=C3C(=O)CC(C)(C)C4)c2c1 (stereo not drawn)	0
C=CCc1cc([N+](=O)[O-])cc2c1OC1(C=C2)N(c2ccccc2)c2ccccc2C1(C)C (stereo not drawn)	0
COc1ccc(/C=C/C(=O)NC(=O)c2ccccc2O)cc1OC	8.33
O=C(COc1ccc(Cl)cc1)Nc1cccc(-c2nc3ncccc3o2)c1	0
CCC(=O)NCc1nnc(SCc2cccc(C(F)(F)F)c2)n1-c1cccc(OC)c1	0.885
CCCN(CCC)S(=O)(=O)c1cc(Br)cc2c1N(C(C)=O)CC2	0
Cc1cccc(C)c1OCC(=O)Nc1ccccc1O	0
c1cncc(-c2ncc(-c3cnccn3)c(-c3cccnc3)n2)c1	0
OC(CN1CCN(C2c3ccccc3-c3ccccc32)CC1)Cn1c2ccc(Cl)cc2c2cc(Cl)ccc21 (stereo not drawn)	4.62
CCOC(=O)C1=C(C)NC2=C(C(=O)C(C(=O)OC)C(C)C2)C1c1cc(Br)c(OC)c(OC)c1 (stereo not drawn)	4.71
O=C(Cc1ccc(F)cc1Cl)N1CCN(c2cccc3c2C(=O)N(Cc2ccccn2)C3=O)CC1	1.72
COc1ccccc1Cn1c(SCc2ccc(Cl)cc2)nc2ccc(Br)cc2c1=O	0
CCC1CCCCN1CCCNC(=O)c1cn(CC)c(=O)c2cc(OC)c(OC)cc12 (stereo not drawn)	0
CCN1/C(=C/c2[se]c3ccccc3[n+]2CC)C=Cc2cc(OC)ccc21	19.6
Cc1cc(-c2ccc(O)c(CN3CCCCCC3)c2)c2ccccc2n1	5.13
CCOC(=O)c1c(NC(=O)C(C)Sc2nnc(CNC(=O)c3ccco3)n2-c2cccc(Cl)c2)sc2c1CCCC2 (stereo not drawn)	1.22
OC1(c2ccc3ccccc3c2)c2c(c3ccccc3c3ccccc23)C2=NCCN21 (stereo not drawn)	3.25

Compound	IFI [%]
Oc1c(CN2CCN(Cc3ccc4cccnc4c3O)CC2)ccc2cccnc12	12.8
COc1ccc(-c2nc3cc(Cc4ccc5[nH]c(-c6ccc(OC)cc6)nc5c4)ccc3[nH]2)cc1	25.7
Nc1nonc1-n1nnc(C(=O)NN=Cc2cc(Br)cs2)c1-c1ccccc1	0
CCCC(C(=O)NC(C)(C)C)N1C(=O)c2cc(NC(C)=O)ccc2NC(=O)[C@@H]1c1ccccc1 (stereo partly drawn)	1.28
CC(=O)N(Cc1ccc2c(c1)OCO2)C1CC(=O)N(c2ccccc2)C1=O (stereo not drawn)	0
COc1cccc(NCC(O)Cn2c3ccc(Cl)cc3c3cc(Cl)ccc32)c1 (stereo not drawn)	0.676
CC1(C)CC(NC(=O)C(=O)NC2CC(C)(C)N(O)C(C)(C)C2)CC(C)(C)N1O	0
COc1cc(CNCCCN(C)C)ccc1OCc1ccc(F)cc1Cl	7.14
CCCCNc1c2c(c(C#N)c3nc4ccccc4n13)CCC2	3.12
COc1cc(C(=O)/C=C/Nc2ccc(N(C)C)cc2)cc(OC)c1OC	7.69
CCOc1nc2c(c(=O)n(C)c(=O)n2C)n1Cc1cccc(Br)c1	4.54
CN(C)C(=O)NCCCCNc1ccnc2cc(Cl)ccc12	0.917
CC1CCCCN1CCCNc1ncc(C(=O)NCCc2ccccc2)c(NCC2CCCO2)n1 (stereo not drawn)	3.81
CCOC(=O)c1ccc(-n2c(C)cc(/C=C3\SC(=Nc4ccc(Cl)cc4)NC3=O)c2C)cc1	1.18
O=C(NCc1cccs1)c1ccc(OC2CCN(CC3CCCCC3)CC2)c(Cl)c1	4.17
O=C(COC(=O)c1ccc2c(c1)C(=O)N(c1ccc3ccccc3c1)C2=O)c1ccc(Br)cc1	0
COc1cc2/c(=N/c3ccc(Br)cc3F)nc[nH]c2cc1OCC1CCN(C)CC1	6.82
CC(=O)NC(c1ccc(N(C)C)cc1)c1cc(Cl)c2cccnc2c1O (stereo not drawn)	0
N#CC1=C(N)Oc2c3c(c4ccccc4c2C1c1ccc(F)cc1)C(c1ccc(F)cc1)C(C#N)=C(N)O3 (stereo not drawn)	6.78
COc1ccc(C2NCCc3c2[nH]c2ccccc32)cc1CSc1nc2ccccc2[nH]1 (stereo not drawn)	2.22
COc1ccc(C(=O)N2C(C(=O)NCCC(C)C)CSC2c2ccc(C(C)(C)C)cc2)cc1 (stereo not drawn)	2.17
O=C(CCCCCN1C(=O)c2cccc3cccc(c23)C1=O)NO	19.4
CC1=C(C(=O)OC(C)C)C(c2ccc([N+](=O)[O-])cc2)C2=C(CC(c3ccc(Cl)cc3)CC2=O)N1 (stereo not drawn)	2.35
CCOC(=O)C1=C(C)NC2=C(C(=O)C(C(=O)OCC)C(c3cccc(OC)c3)C2)C1c1ccc(Br)cc1 (stereo not drawn)	2.33

Compound	IFI [%]
Cc1cc(N2CCCC2)nc2ccc(NC(=S)NCCN3CCc4ccccc4C3)cc12	5.88
c1ccc(CC[n+]2cc(-c3ccccc3)n3c2CCC3)cc1	2.44
Cc1nc(N2CCCCC2)c2c(C)c(C(=O)N3CCN(c4cccc(Cl)c4)CC3)sc2n1	0
COc1ccc(Nc2nc(-c3cc4cc(OC)ccc4oc3=O)cs2)c(OC)c1	0
O=C1CC(c2ccccc2)Oc2ccc(F)cc21 (stereo not drawn)	2.27
O=C(C1CCC(Cn2c(=S)[nH]c3ccccc3c2=O)CC1)N1CC=C(c2ccccc2)CC1 (stereo not drawn)	0
CC(=O)Nc1c(NCc2ccccc2)c2ccccc2sc1=O	2.17
CCN(CC)C(=O)c1ccc2c(=O)n(Cc3cccc(Br)c3)c(=S)[nH]c2c1	0
CN(CCCNc1ccnc2cc(Cl)ccc12)C(=O)c1ccc(C(C)(C)C)cc1	7.48
CCCCN1C=CC=C/C1=C\c1sc2ccccc2[n+]1CC	18.2
CC(=O)Oc1ccccc1-c1nc2cc(C)ccn2c1NC(C)(C)CC(C)(C)C	4.67
CCCNC(=O)CSc1nc(C)c(Cc2ccccc2)c(=O)n1C	0.926
CCOC(=O)c1c(NC(=O)CSc2nnc(CNC(=O)c3cccs3)n2-c2ccccc2OC)sc2c1CCC2	2.41
COc1cc(C=NNC(=O)c2ccco2)ccc1OCc1ccc([N+](=O)[O-])cc1	0
CC[n+]1c(C=C2Sc3ccccc3N2CCO)sc2ccccc21	4.69
COc1ccccc1NC1=CC(=NS(=O)(=O)c2ccccc2)c2ccccc2C1=O	21.4
COC(=O)C1=CN(Cc2ccc(OC)cc2)C=C(C(=O)OC)C1c1cccs1	2.5
c1ccc(-c2nc(-c3ccc4cccnc4c3)n(-n3c(-c4ccc5cccnc5c4)nc(-c4ccccc4)c3-c3ccccc3)c2-c2ccccc2)cc1	0
O=C(Nc1ccc(C23CC4CC(CC(c5ccccc5)(C4)C2)C3)cc1)c1cccs1	0
CCN(CC)CCCC(C)NCc1ccc(OC)c(OCc2ccccc2)c1 (stereo not drawn)	7.14
COc1ccc(-c2ccc(C=NNC(=O)CNC(=O)c3ccc4c(c3)OCO4)o2)cc1Cl	0
CCCCCCc1ccc(C(=O)Oc2ccccc2-c2nc3cc(C)ccn3c2NC(C)(C)CC(C)(C)C)cc1	2.1
CSCCC(C(=O)NCC(=O)O)N1C(=O)c2cc(NC(C)=O)ccc2NC(=O)[C@@H]1c1ccccc1 (stereo partly drawn)	1.22
Cc1ccn2c(NC(C)(C)CC(C)(C)C)c(-c3ccccc3OC(=O)C3CCCC3)nc2c1	3.74

Compound	IFI [%]
O=c1c2c3c(sc2ncn1CC1CCCCC1)CC(NCc1cccnc1)CC3 (stereo not drawn)	1.71
CC(C)(C)c1nn(-c2ccc(Cl)cc2)c2[nH]c(=O)c(CNCc3ccc(Cl)cc3)cc12	5.56
COc1ccc(-c2nc(-c3ccc4c(c3)-c3cc(-c5[nH]c(-c6ccc(OC)cc6)nc5-c5ccccc5)ccc3C4=O)c(-c3ccccc3)[nH]2)cc1	1.54
CC(C)(C)c1ccc(/C=C/C(=O)NCc2ccco2)cc1	0
Cc1ccc(NC(=O)c2sc3nc4c(c(-c5cccs5)c3c2N)CCCCC4)cc1	2.41
O=C1c2ccccc2-c2nc3c(Cl)cc(C(F)(F)F)cc3nc21	6.36
CCN1C(=Cc2ccc3ccccc3[n+]2CC)C=Cc2sc3ccccc3c21	31.4
CCOC(=O)NN=C1c2ccccc2-c2nc3nonc3nc21	15.4
NC(=O)c1ccc2[nH]c3c(c2c1)CCCC3	0
Cc1ccc(NC(=O)C2C3C=CC4(O3)C2C(=O)N(Cc2cccnc2)C4C(=O)NC2CCCCC2)cc1 (stereo not drawn)	0
CCCOC(=O)C1=C(C)NC2=C(C(=O)CC(c3ccc(OC)cc3)C2)C1c1cccc(F)c1 (stereo not drawn)	2.35
CC(Sc1nnc2c3ccccc3n(Cc3ccccc3)c2n1)C(=O)N1CCN(C(=O)C(c2ccccc2)c2ccccc2)C(C)C1 (stereo not drawn)	1.89
COc1ccc(OC)c(C2CC(=O)C3=C(C2)NC(=O)CC3c2ccc([N+](=O)[O-])cc2)c1 (stereo not drawn)	0
CC[n+]1c(SC)ccc2cc(OC)ccc21	7.94
O=C(C1CC1)N1CCc2cc(Br)cc(S(=O)(=O)N3CCCCC3)c21	0
O=C(CCl)Nc1ccc(S(=O)(=O)OCC(F)(F)C(F)F)cc1	7.69
CCOc1cc(C2CC(=O)NC3=C2C(=O)CC(c2ccc(OC)cc2)C3)cc(Cl)c1O (stereo not drawn)	0
COC(=O)c1ccc(C2C3=C(CC(c4ccc(OC)cc4)CC3=O)Nc3ccccc3N2C(=O)c2ccccc2)cc1 (stereo not drawn)	3.66
Cc1nc(C(C)N(C)Cc2c(C(=O)N3CCCCCCC3)nc3sccn23)c(C)s1 (stereo not drawn)	0
COc1cc(Nc2cncc(-c3ccc(C(N)=O)cc3)n2)cc(OC)c1OC	0
Oc1ccc(-c2ccnc3cc(Cl)ccc23)cc1CNCCN1CCOCC1	1.72
